Measurements from PubChem BioAssay AID1508642 (National Center for Advancing Translational Sciences (NCATS), 2021).
The campaign covered roughly 43,000 compounds. About 200 (0.47%) were called active. About 12% were inconclusive and are not listed. Calls come from the whole dose curve; as a rule, active = well fitted cell-killing curve with a large enough effect; inconclusive = small, poorly fitted or top-dose-only effect, or effect the other way; inactive = flat fitted curve, though single readings scatter. The list shows a part of the results.

assay: Cell viability qHTS assay in S16 Pmp22-F2sN cells; conditions: S16 Pmp22-F2sN Schwann cells viability, CellTiter-Glo, 24 h; series mostly up to 57.5 µM; activity change, negative = cytotoxicity: at the top concentration; note: nearly all actives have a fitted effect of over 65% in size
Summary of the method: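 Used to flag compounds lowering reporter output through toxicity, this quantitative HTS measures ATP-based CellTiter-Glo luminescence in S16 Pmp22-F2sN Schwann cells after 24 h compound exposure at 37C.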
% is set by controls: 0 for no effect and ±100 for the full control effect.

SMILES	activity change, negative = cytotoxicity
Cc1nn(-c2ccccc2)c2c1cc1c(=O)n(C)c(=O)nc-1n2-c1cccc(Cl)c1	inactive: 5.29%
Cc1cc(C(=O)NCc2cccc(Br)c2)c2c(C)nn(-c3ccccc3)c2n1	inactive: -0.947%
CCOc1ccc(NC(=O)c2nc3nc(C)cc(C(F)F)n3n2)cc1	inactive: -1.96%
Cc1cc(C)c2c(-n3cccc3)c(C(=O)NCc3cccc(F)c3)sc2n1	inactive: 10.5%
CCc1nnc(SCc2ccc(OC)cc2)c2cc3sc(C)cc3n12	inactive: 19.8%
COc1cc(CCNC(=O)c2ccc3c(c2)c(C)c(C)n3Cc2cccc(C)c2)cc(OC)c1OC	inactive: -19.8%
COCCCn1c(=N)c(C(=O)NCc2cccnc2)cc2c(=O)n3cc(C)ccc3nc21	inactive: 5.42%
COc1ccc(OC)c(Nc2ncnc3c2nc2n3CCCC2)c1	inactive: 2.11%
COc1cc(OC)c(NC(=O)c2nn(-c3ccc(C)cc3)c(=O)c3c2c2ccccc2n3C)cc1Cl	inactive: 25.4%
O=C(Nc1cccc(C(=O)N2CCN(c3cccc(Cl)c3)CC2)c1)c1nsc2ccccc12	inactive: -8.64%
CCOc1ccc(C2c3c(oc4ccc(C)cc4c3=O)C(=O)N2CCCN(C)C)cc1 (stereo not drawn)	inactive: 3.04%
CCc1ccccc1NC(=O)c1ccc2c(SCC(=O)O)c3c(nc2c1)CCC3	inactive: 6.2%
Cc1ccccc1Cn1c2ccccc2c2cnn(CC(=O)NCC(C)c3ccccc3)c(=O)c21 (stereo not drawn)	inactive: 18.2%
CCc1ccccc1NC(=O)C1CCN(c2cnccn2)CC1	inactive: 4.73%
CC(C)CCn1nnc2sc(-c3ccccc3)cc2c1=O	inactive: 1.21%
CCCCSCCCNC(=O)c1cn(C)c2ccc(S(=O)(=O)N3CCCCCC3)cc2c1=O	inactive: 7.54%
CC(=O)c1nnn(-c2ccc(C)cc2Cl)c1C	inactive: -2.75%
O=C(CCn1cnnn1)Nc1cc(C(F)(F)F)cc(C(F)(F)F)c1	inactive: -4.7%
CC(=O)c1ccc(Nc2ccc3cc(S(=O)(=O)N4CCCC4)ccc3n2)cc1	inactive: -19.4%
COc1cc(NC(=O)CSc2nccn2C)cc(OC)c1OC	inactive: 12.6%
COc1ccc2c(c1)c1c(c(=O)n(-c3ccc(OC)c(OC)c3)c(=O)n1Cc1ccccc1F)n2C	inactive: -1.12%
Cc1ccc(NC(=O)c2c(NC(=O)Cc3ccccc3)sc3c2CCCC3)cc1	inactive: 8.87%
CCC(=O)C1=C(c2ccc(OC)c(OC)c2)N(C(=O)CC)n2c(CC)nnc2S1	inactive: -10.3%
CCOc1ccc(CCNC(=O)CN2C(=O)COc3ccc(S(=O)(=O)N4CCCCCC4)cc32)cc1	inactive: 17%

SMILES	activity change, negative = cytotoxicity
CC(=O)c1cccc(NC(=O)Cn2c(=O)oc3cc(S(=O)(=O)N4CCCC4)ccc32)c1	inactive: 8.55%
CC(=O)Nc1ccc(NC(=O)CCSCCc2ccccn2)cc1	inactive: -6.38%
O=S(=O)(Nc1cc(F)ccc1F)c1ccc2[nH]c3c(c2c1)CCCCC3	inactive: 8.01%
Cc1ccc2oc(=O)c3cc(C(=O)N4CCN(c5ccccc5F)CC4)sc3c2c1	inactive: 4.16%
CC(C)(C)c1ccc(Oc2ccc(NC(=O)CCC(=O)OCC(=O)c3ccccc3)cc2)cc1	inactive: 7.87%
N#Cc1c(-n2ncnc2-c2cccc(Br)c2)sc2c1CCCCC2	inactive: -2.09%
COc1ccc(-n2c(SCC(=O)Nc3cccc(C)c3C)nc3c([nH]c4ccccc43)c2=O)cc1	inactive: 5.57%
Fc1cccc(Cl)c1CNCCSc1nnnn1-c1ccccc1	inactive: 4.17%
O=C(Nc1cc2ccc(O)cc2oc1=O)c1ccccc1	inactive: -7.14%
CC(C)CCNC(=O)c1ccc2c(c1)N(Cc1ccccc1F)C(=O)c1ccccc1S2(=O)=O	inactive: -8.58%
O=C(CNC(=O)c1ccccc1F)OCc1cc(=O)n2nc(C3CCCCC3)sc2n1	inactive: 11.6%
COc1cccc(C(=O)N(Cc2ccco2)c2ccccn2)c1	inactive: -7.34%
COC(=O)CNC(=O)N1CCN(S(=O)(=O)c2ccc3c(ccn3C)c2)CC1	inactive: 3.37%
COc1ccc(C(=O)Nc2ccc3oc(-c4ccc5ccccc5c4)nc3c2)cc1Br	inactive: 11.9%
Cn1cccc1-c1cc2n(n1)CCC(=O)N2CCCC(=O)NCc1ccc(F)cc1	inactive: 0.0114%
CCCCNC(=O)CN1C(=O)COc2ccc(S(=O)(=O)N3CCCCCC3)cc21	inactive: -2.45%
COc1ccc2cc(CNc3ccc(OC)c(OC)c3)c(=O)n(CC(=O)Nc3ccccc3F)c2c1	inactive: 14.1%
CCOC(=O)c1[nH]c(C)c(CCC(=O)Nc2cccc(SC)c2)c1C	inactive: 0.972%
Cc1cc(=O)[nH]c2nnc(SCc3ccc(C(F)(F)F)cc3)n12	inactive: -4.81%
Cc1cccc(C)c1NC(=O)Cn1c(SCC(=O)NCc2ccccc2)nc2ccccc21	inactive: 10.8%
Cc1ccc(NC(=O)CN2C(=O)c3ccccc3Sc3ccc(C(=O)N4CCOCC4)cc32)c(Cl)c1	inactive: -10.1%
CCN(CC)S(=O)(=O)c1ccc2oc(C(=O)Nc3cc(C)ccc3OC)c(C)c2c1	inactive: 0.108%
CCOc1ccccc1CNCc1c(C(=O)O)n(Cc2ccc(F)cc2)c2cc(C)ccc12	inactive: -20.1%
CC(=O)c1ccc(N2CCN(C(=O)CCn3cnc4onc(-c5ccc(F)cc5)c4c3=O)CC2)cc1	inactive: 1.17%
